# Measurements as given in the supplement of paper PMC8728848.
# Some of the results follow.
# B1: PILRa (Homo sapiens), Q9UKJ1 (protein)
# chain: MGRPLLLPLLPLLLPPAFLQPSGSTGSGPSYLYGVTQPKHLSASMGGSVEIPFSFYYPWELATAPDVRISWRRGHFHRQSFYSTRPPSIHKDYVNRLFLNWTEGQKSGFLRISNLQKQDQSVYFCRVELDTRSSGRQQWQSIEGTKLSITQAVTTTTQRPSSMTTTWRLSSTTTTTGLRVTQGKRRSDSWHISLETAVGVAVAVTVLGIMILGLICLLRWRRRKGQQRTKATTPAREPFQNTEEPYENIRNEGQNTDPKLNPKDDGIVYASLALSSSTSPRAPPSHRPLKSPQNETLYSVLKA
# How the values were obtained:
# Experiment in all cases: glycan array binding signal (z-score within array); higher = stronger binding
# Details in all cases: glycan notation: IUPAC condensed, linker removed
# [1] = molecular target: Man(a1-3)[Man(a1-6)]Man
# Method in brief: (§1)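 Arrays were curated from the Consortium for Functional Glycomics database, 3228 in total, and kept only where the protein sequence was available. Binding is expressed as a within-array Z-score. This score was averaged across arrays of the same protein sequence at different concentrations or buffers and across linkers, and negative values can be read as non-binding.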
# [2] = molecular target: Man(a1-3)[Man(a1-6)]Man(a1-6)[Man(a1-2)Man(a1-3)]Man(b1-4)GlcNAc(b1-4)GlcNAc
# Method in brief: as §1
# [3] = molecular target: Man(a1-3)[Man(a1-6)]Man(a1-6)[Man(a1-3)]Man
# Method in brief: as §1
# [4] = molecular target: Man(a1-3)[Man(a1-6)]Man(a1-6)[Man(a1-3)]Man(b1-4)GlcNAc(b1-4)GlcNAc
# Method in brief: as §1
# [5] = molecular target: Man(a1-3)[Man(a1-6)]Man(b1-4)GlcNAc(b1-4)GlcNAc
# Method in brief: as §1
# [6] = molecular target: Man(a1-6)Man
# Method in brief: as §1
# [7] = molecular target: Man(b1-4)GlcNAc
# Method in brief: as §1
# [8] = molecular target: Neu5Ac(a2-3)Gal
# Method in brief: as §1
# [9] = molecular target: Neu5Ac(a2-3)Gal(b1-3)GalNAc
# Method in brief: as §1
# [10] = molecular target: Neu5Ac(a2-3)Gal(b1-3)GalNAc(b1-3)Gal(a1-4)Gal(b1-4)Glc
# Method in brief: as §1
# [11] = molecular target: Neu5Ac(a2-3)Gal(b1-3)GalNAc(b1-3)Gal(b1-4)GlcNAc
# Method in brief: as §1
# [12] = molecular target: Neu5Ac(a2-3)Gal(b1-3)GalNAc(b1-4)[Neu5Ac(a2-3)]Gal(b1-4)Glc
# Method in brief: as §1
# [13] = molecular target: Neu5Ac(a2-3)Gal(b1-3)GalNAc(b1-4)[Neu5Ac(a2-8)Neu5Ac(a2-3)]Gal(b1-4)Glc
# Method in brief: as §1
# [14] = molecular target: Neu5Ac(a2-3)Gal(b1-3)GalNAc6S
# Method in brief: as §1
# [15] = molecular target: Neu5Ac(a2-3)Gal(b1-3)GlcNAc
# Method in brief: as §1
# [16] = molecular target: Neu5Ac(a2-3)Gal(b1-3)GlcNAc(b1-2)Man(a1-3)[Neu5Ac(a2-3)Gal(b1-3)GlcNAc(b1-2)Man(a1-6)]Man(b1-4)GlcNAc(b1-4)GlcNAc
# Method in brief: as §1
# [17] = molecular target: Neu5Ac(a2-3)Gal(b1-3)GlcNAc(b1-3)Gal(b1-3)GlcNAc
# Method in brief: as §1
# [18] = molecular target: Neu5Ac(a2-3)Gal(b1-3)GlcNAc(b1-3)Gal(b1-4)GlcNAc
# Method in brief: as §1
# [19] = molecular target: Neu5Ac(a2-3)Gal(b1-3)GlcNAc(b1-3)GalNAc
# Method in brief: as §1
# [20] = molecular target: Neu5Ac(a2-3)Gal(b1-3)GlcNAc6S
# Method in brief: as §1
# [21] = molecular target: Neu5Ac(a2-3)Gal(b1-3)[Fuc(a1-4)]GlcNAc
# Method in brief: as §1
# [22] = molecular target: Neu5Ac(a2-3)Gal(b1-3)[Fuc(a1-4)]GlcNAc(b1-3)Gal(b1-3)[Fuc(a1-4)]GlcNAc
# Method in brief: as §1
# [23] = molecular target: Neu5Ac(a2-3)Gal(b1-3)[Fuc(a1-4)]GlcNAc(b1-3)Gal(b1-4)[Fuc(a1-3)]GlcNAc
# Method in brief: as §1
# [24] = molecular target: Neu5Ac(a2-3)Gal(b1-3)[Neu5Ac(a2-3)Gal(b1-4)]GlcNAc
# Method in brief: as §1
# [25] = molecular target: Neu5Ac(a2-3)Gal(b1-3)[Neu5Ac(a2-6)]GalNAc
# Method in brief: as §1
# [26] = molecular target: Neu5Ac(a2-3)Gal(b1-4)Glc
# Method in brief: as §1
# [27] = molecular target: Neu5Ac(a2-3)Gal(b1-4)GlcNAc
# Method in brief: as §1
# [28] = molecular target: Neu5Ac(a2-3)Gal(b1-4)GlcNAc(b1-2)Man(a1-3)[GlcNAc(b1-2)Man(b1-4)GlcNAc(b1-2)Man(a1-6)]Man(b1-4)GlcNAc(b1-4)GlcNAc
# Method in brief: as §1
# [29] = molecular target: Neu5Ac(a2-3)Gal(b1-4)GlcNAc(b1-2)Man(a1-3)[Neu5Ac(a2-6)Gal(b1-4)GlcNAc(b1-2)Man(a1-6)]Man(b1-4)GlcNAc(b1-4)GlcNAc
# Method in brief: as §1
# [30] = molecular target: Neu5Ac(a2-3)Gal(b1-4)GlcNAc(b1-3)Gal
# Method in brief: as §1
# [31] = molecular target: Neu5Ac(a2-3)Gal(b1-4)GlcNAc(b1-3)Gal(b1-3)GlcNAc
# Method in brief: as §1
# [32] = molecular target: Neu5Ac(a2-3)Gal(b1-4)GlcNAc(b1-3)Gal(b1-4)GlcNAc
# Method in brief: as §1
# [33] = molecular target: Neu5Ac(a2-3)Gal(b1-4)GlcNAc(b1-3)Gal(b1-4)GlcNAc(b1-3)Gal(b1-4)GlcNAc
# Method in brief: as §1
# [34] = molecular target: Neu5Ac(a2-3)Gal(b1-4)GlcNAc(b1-3)Gal(b1-4)[Fuc(a1-3)]GlcNAc
# Method in brief: as §1
# [35] = molecular target: Neu5Ac(a2-3)Gal(b1-4)GlcNAc(b1-3)GalNAc
# Method in brief: as §1
# [36] = molecular target: Neu5Ac(a2-3)Gal(b1-4)GlcNAc(b1-6)[Gal(b1-3)]GalNAc
# Method in brief: as §1
# [37] = molecular target: Neu5Ac(a2-3)Gal(b1-4)GlcNAc(b1-6)[Neu5Ac(a2-3)Gal(b1-3)]GalNAc
# Method in brief: as §1
# [38] = molecular target: Neu5Ac(a2-3)Gal(b1-4)GlcNAc6S
# Method in brief: as §1
binder,measurement,setting,value
B1,glycan array binding signal (z-score),[1],-0.372
same,glycan array binding signal (z-score),[2],-0.215
same,glycan array binding signal (z-score),[3],-0.232
same,glycan array binding signal (z-score),[4],-0.16
same,glycan array binding signal (z-score),[5],-0.085
same,glycan array binding signal (z-score),[6],-0.187
same,glycan array binding signal (z-score),[7],-0.254
same,glycan array binding signal (z-score),[8],-0.314
same,glycan array binding signal (z-score),[9],-0.122
same,glycan array binding signal (z-score),[10],-0.314
same,glycan array binding signal (z-score),[11],-0.44
same,glycan array binding signal (z-score),[12],-0.281
same,glycan array binding signal (z-score),[13],-0.081
same,glycan array binding signal (z-score),[14],-0.182
same,glycan array binding signal (z-score),[15],0.854
same,glycan array binding signal (z-score),[16],-0.057
same,glycan array binding signal (z-score),[17],-0.15
same,glycan array binding signal (z-score),[18],-0.226
same,glycan array binding signal (z-score),[19],-0.354
same,glycan array binding signal (z-score),[20],-0.397
same,glycan array binding signal (z-score),[21],-0.307
same,glycan array binding signal (z-score),[22],-0.282
same,glycan array binding signal (z-score),[23],-0.241
same,glycan array binding signal (z-score),[24],-0.243
same,glycan array binding signal (z-score),[25],-0.132
same,glycan array binding signal (z-score),[26],-0.248
same,glycan array binding signal (z-score),[27],-0.257
same,glycan array binding signal (z-score),[28],0.008
same,glycan array binding signal (z-score),[29],-0.293
same,glycan array binding signal (z-score),[30],-0.256
same,glycan array binding signal (z-score),[31],-0.212
same,glycan array binding signal (z-score),[32],1.17
same,glycan array binding signal (z-score),[33],-0.327
same,glycan array binding signal (z-score),[34],-0.125
same,glycan array binding signal (z-score),[35],0.119
same,glycan array binding signal (z-score),[36],-0.258
same,glycan array binding signal (z-score),[37],-0.032
same,glycan array binding signal (z-score),[38],-0.16
